# Assay results: the supplement of paper PMC8728848
# The list shows a part of the results.
# Legend:
# Experiment in all cases: glycan array binding signal (z-score within array); higher = stronger binding
# Details in all cases: glycan notation: IUPAC condensed, linker removed
# Fuc(a1-2)Gal = biological target: Fuc(a1-2)Gal
# Procedure, shortened: (§1)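 Glycan array binding is given as a within-array Z-score, which can be read as non-binding when negative. The arrays, 3228 of them, came from the Consortium for Functional Glycomics database and were retained only where the protein sequence was available. Z-scores were averaged across arrays of the same protein sequence at different concentrations or buffers and across linkers.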
# Fuc(a1-2)Gal(b1-3)GalNAc = biological target: Fuc(a1-2)Gal(b1-3)GalNAc
# Procedure, shortened: as §1
# [1] = biological target: Fuc(a1-2)Gal(b1-3)GalNAc(b1-3)Gal
# Procedure, shortened: as §1
# [2] = biological target: Fuc(a1-2)Gal(b1-3)GalNAc(b1-3)Gal(a1-4)Gal(b1-4)Glc
# Procedure, shortened: as §1
# [3] = biological target: Fuc(a1-2)Gal(b1-3)GalNAc(b1-4)[Neu5Ac(a2-3)]Gal(b1-4)Glc
# Procedure, shortened: as §1
# Fuc(a1-2)Gal(b1-3)GlcNAc = biological target: Fuc(a1-2)Gal(b1-3)GlcNAc
# Procedure, shortened: as §1
# [4] = biological target: Fuc(a1-2)Gal(b1-3)GlcNAc(b1-3)Gal(b1-4)Glc
# Procedure, shortened: as §1
# [5] = biological target: Fuc(a1-2)Gal(b1-3)[Fuc(a1-4)]GlcNAc
# Procedure, shortened: as §1
# Fuc(a1-2)Gal(b1-4)Glc = biological target: Fuc(a1-2)Gal(b1-4)Glc
# Procedure, shortened: as §1
# Fuc(a1-2)Gal(b1-4)GlcNAc = biological target: Fuc(a1-2)Gal(b1-4)GlcNAc
# Procedure, shortened: as §1
# [6] = biological target: Fuc(a1-2)Gal(b1-4)GlcNAc(b1-3)Gal(b1-4)GlcNAc
# Procedure, shortened: as §1
# [7] = biological target: Fuc(a1-2)Gal(b1-4)GlcNAc(b1-3)Gal(b1-4)GlcNAc(b1-3)Gal(b1-4)GlcNAc
# Procedure, shortened: as §1
# [8] = biological target: Fuc(a1-2)Gal(b1-4)[Fuc(a1-3)]GlcNAc
# Procedure, shortened: as §1
# [9] = biological target: Fuc(a1-2)Gal(b1-4)[Fuc(a1-3)]GlcNAc(b1-3)Gal(b1-4)[Fuc(a1-3)]GlcNAc
# Procedure, shortened: as §1
# [10] = biological target: Fuc(a1-2)Gal(b1-4)[Fuc(a1-3)]GlcNAc(b1-3)Gal(b1-4)[Fuc(a1-3)]GlcNAc(b1-3)Gal(b1-4)[Fuc(a1-3)]GlcNAc
# Procedure, shortened: as §1
# Fuc(a1-2)GlcNAc = biological target: Fuc(a1-2)GlcNAc
# Procedure, shortened: as §1
# Fuc(a1-2)[Gal(a1-3)]Gal = biological target: Fuc(a1-2)[Gal(a1-3)]Gal
# Procedure, shortened: as §1
# [11] = biological target: Fuc(a1-2)[Gal(a1-3)]Gal(b1-3)GlcNAc
# Procedure, shortened: as §1
# [12] = biological target: Fuc(a1-2)[Gal(a1-3)]Gal(b1-4)Glc
# Procedure, shortened: as §1
# [13] = biological target: Fuc(a1-2)[Gal(a1-3)]Gal(b1-4)GlcNAc
# Procedure, shortened: as §1
# [14] = biological target: Fuc(a1-2)[Gal(a1-3)]Gal(b1-4)[Fuc(a1-3)]GlcNAc
# Procedure, shortened: as §1
# [15] = biological target: Fuc(a1-2)[Gal(a1-4)]Gal(b1-4)GlcNAc
# Procedure, shortened: as §1
# [16] = biological target: Fuc(a1-2)[GalNAc(a1-3)]Gal
# Procedure, shortened: as §1
# [17] = biological target: Fuc(a1-2)[GalNAc(a1-3)]Gal(b1-3)GlcNAc
# Procedure, shortened: as §1
# [18] = biological target: Fuc(a1-2)[GalNAc(a1-3)]Gal(b1-4)Glc
# Procedure, shortened: as §1
# [19] = biological target: Fuc(a1-2)[GalNAc(a1-3)]Gal(b1-4)GlcNAc
# Procedure, shortened: as §1
# [20] = biological target: Fuc(a1-2)[GalNAc(a1-3)]Gal(b1-4)[Fuc(a1-3)]GlcNAc
# Procedure, shortened: as §1
# [21] = biological target: Fuc(a1-2)[GalNAc(a1-4)]Gal(b1-4)GlcNAc
# Procedure, shortened: as §1
# [22] = biological target: Fuc(a1-2)[GalNAc(b1-3)]Gal
# Procedure, shortened: as §1
# Fuc(a1-3)GlcNAc = biological target: Fuc(a1-3)GlcNAc
# Procedure, shortened: as §1
binder,measurement,setting,value
"AICL (Homo sapiens), Q92478 (protein) MMTKHKKCFIIVGVLITTNIITLIVKLTRDSQSLCPYDWIGFQNKCYYFSKEEGDWNSSKYNCSTQHADLTIIDNIEEMNFLRRYKCSSDHWIGLKMAKNRTGQWVDGATFTKSFGMRGSEGCAYLSDDGAATARCYTERKWICRKRIH",glycan array binding signal (z-score),Fuc(a1-2)Gal,-0.425
same,glycan array binding signal (z-score),Fuc(a1-2)Gal(b1-3)GalNAc,-0.338
same,glycan array binding signal (z-score),[1],0.755
same,glycan array binding signal (z-score),[2],-0.076
same,glycan array binding signal (z-score),[3],-0.209
same,glycan array binding signal (z-score),Fuc(a1-2)Gal(b1-3)GlcNAc,-0.386
same,glycan array binding signal (z-score),[4],-0.41
same,glycan array binding signal (z-score),[5],2
same,glycan array binding signal (z-score),Fuc(a1-2)Gal(b1-4)Glc,-0.459
same,glycan array binding signal (z-score),Fuc(a1-2)Gal(b1-4)GlcNAc,0.25
same,glycan array binding signal (z-score),[6],-0.446
same,glycan array binding signal (z-score),[7],-0.109
same,glycan array binding signal (z-score),[8],-0.295
same,glycan array binding signal (z-score),[9],-0.049
same,glycan array binding signal (z-score),[10],0.298
same,glycan array binding signal (z-score),Fuc(a1-2)GlcNAc,-0.398
same,glycan array binding signal (z-score),Fuc(a1-2)[Gal(a1-3)]Gal,-0.508
same,glycan array binding signal (z-score),[11],-0.498
same,glycan array binding signal (z-score),[12],-0.329
same,glycan array binding signal (z-score),[13],-0.312
same,glycan array binding signal (z-score),[14],-0.22
same,glycan array binding signal (z-score),[15],-0.399
same,glycan array binding signal (z-score),[16],-0.433
same,glycan array binding signal (z-score),[17],-0.128
same,glycan array binding signal (z-score),[18],-0.265
same,glycan array binding signal (z-score),[19],-0.158
same,glycan array binding signal (z-score),[20],-0.191
same,glycan array binding signal (z-score),[21],-0.482
same,glycan array binding signal (z-score),[22],-0.203
same,glycan array binding signal (z-score),Fuc(a1-3)GlcNAc,-0.024
